Measurements as given in the supplement of paper PMC10037445.
± gives the standard deviation of the averaged measurements. The full ranking holds about 2,900 compounds; the median of “NF-kB SEAP reporter activity, fold change vs agonist alone” is about 0.99, and the highest 2% start at about 2.6. Some of the results follow.

Experiments:
[1] = test system: RAW-Dual; test: NF-kB SEAP reporter activity, fold change vs agonist alone; cytotoxicity flag (confluency mask): not cytotoxic; higher = enhanced NF-kB activity
How it was run: (§1)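 RAW-Dual macrophages were seeded in DMEM at 50,000 cells/well in 384-well plates, given 50 nL of library stock by pin tool, and given a PRR agonist 1 h later. Plates were held at 37 °C, 5% CO2 for 20 hours, after which supernatant was read for IRF by QuantiLuc luminescence and for NF-κB by QuantiBlue absorbance at 620 nm. Reporter activity is expressed as fold change over wells that received agonist alone. A well was called cytotoxic when IncuCyte confluency fell below 70% of agonist controls in both mask sets.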

[2] = test system: RAW-Dual; test: NF-kB SEAP reporter activity, fold change vs agonist alone; higher = enhanced NF-kB activity; conditions: library stock concentration (final ~1000-fold dilution): 10 mM
How it was run: as §1

[3] = test system: RAW-Dual; test: NF-kB SEAP reporter activity, fold change vs agonist alone; cytotoxicity flag (confluency mask): cytotoxic (confluency <70% of control); higher = enhanced NF-kB activity
How it was run: as §1

[4] = agonist: ODN 1826 (TLR9) 0.5 ug/mL
[5] = agonist: Pam2CSK4 (TLR2/6) 0.1 ug/mL
[6] = agonist: Pam3CSK4 (TLR2/1) 0.1 ug/mL
[7] = cytotoxicity flag (confluency mask): not cytotoxic, agonist: Imiquimod (TLR7) […]
[8] = cytotoxicity flag (confluency mask): not cytotoxic, agonist: MPLA (TLR4) […]
[9] = cytotoxicity flag (confluency mask): cytotoxic (confluency <70% of control), agonist: MPLA (TLR4) […]
[10] = cytotoxicity flag (confluency mask): cytotoxic (confluency <70% of control), agonist: Imiquimod (TLR7) […]

SMILES: O=C1C(Cc2ccc(O)cc2)N2C(=O)CCN(C(=O)NCc3ccccc3)C2CN1Cc1cccc2ccccc12 (stereo not drawn) (library stock concentration (final ~1000-fold dilution): 10 mM)
- NF-kB SEAP reporter activity ([1]; agonist: LPS (TLR4) 0.1 ug/mL): 3.72
- NF-kB SEAP reporter activity [1, 4]: 1.08
- NF-kB SEAP reporter activity [1, 5]: 0.484
- NF-kB SEAP reporter activity [1, 6]: 0.63

SMILES: O=C1C(Cc2ccc(O)cc2)N2C(=O)CCN(C(=O)NCc3ccccc3)C2CN1Cc1cccc2ccccc12 (stereo not drawn)
- NF-kB SEAP reporter activity [2, 7]: 1.45
- NF-kB SEAP reporter activity [2, 8]: 2.26

SMILES: CNCCCN1c2ccccc2CCc2ccccc21.Cl (library stock concentration (final ~1000-fold dilution): 10 mM)
- NF-kB SEAP reporter activity ([3]; agonist: LPS (TLR4) 0.1 ug/mL): 1.53
- NF-kB SEAP reporter activity [3, 4]: 0.748
- NF-kB SEAP reporter activity [3, 5]: 0.908
- NF-kB SEAP reporter activity [3, 6]: 0.636

SMILES: CNCCCN1c2ccccc2CCc2ccccc21.Cl
- NF-kB SEAP reporter activity [2, 9]: 1.31

SMILES: CC(C)(O)c1ccccc1CCC(SCC1(CC(=O)O)CC1)c1cccc(/C=C/c2ccc3ccc(Cl)cc3n2)c1 (stereo not drawn) (library stock concentration (final ~1000-fold dilution): 10 mM)
- NF-kB SEAP reporter activity ([3]; agonist: LPS (TLR4) 0.1 ug/mL): 1.21
- NF-kB SEAP reporter activity [3, 4]: 0.499
- NF-kB SEAP reporter activity [3, 5]: 0.814
- NF-kB SEAP reporter activity [3, 6]: 0.458

SMILES: CC(C)(O)c1ccccc1CCC(SCC1(CC(=O)O)CC1)c1cccc(/C=C/c2ccc3ccc(Cl)cc3n2)c1 (stereo not drawn)
- NF-kB SEAP reporter activity [2, 10]: 1.05
- NF-kB SEAP reporter activity [2, 9]: 0.809

SMILES: O=C(O)CCn1c2c(c3ccccc31)CC(NS(=O)(=O)c1ccc(F)cc1)CC2 (stereo not drawn) (library stock concentration (final ~1000-fold dilution): 10 mM)
- NF-kB SEAP reporter activity ([1]; agonist: LPS (TLR4) 0.1 ug/mL): 1.07
- NF-kB SEAP reporter activity [1, 4]: 0.99
- NF-kB SEAP reporter activity [1, 5]: 1.13
- NF-kB SEAP reporter activity [1, 6]: 1.07

SMILES: O=C(O)CCn1c2c(c3ccccc31)CC(NS(=O)(=O)c1ccc(F)cc1)CC2 (stereo not drawn)
- NF-kB SEAP reporter activity [2, 8]: 1.07

SMILES: O=C(Nc1ccc2[nH]nc(-c3ccc4[nH]ccc4c3)c2c1)c1c(Cl)cccc1Cl (library stock concentration (final ~1000-fold dilution): 10 mM)
- NF-kB SEAP reporter activity ([3]; agonist: LPS (TLR4) 0.1 ug/mL): 0.946
- NF-kB SEAP reporter activity [3, 4]: 0.844
- NF-kB SEAP reporter activity [3, 5]: 0.0858
- NF-kB SEAP reporter activity [3, 6]: 0.202

SMILES: O=C(Nc1ccc2[nH]nc(-c3ccc4[nH]ccc4c3)c2c1)c1c(Cl)cccc1Cl
- NF-kB SEAP reporter activity [2, 10]: 0.55
- NF-kB SEAP reporter activity [2, 9]: 0.704

SMILES: COc1ccc2c(c1)C1(CC1c1ccc3c(/C=C/c4ccc(CN5CC(C)OC(C)C5)cc4)n[nH]c3c1)C(=O)N2 (stereo not drawn)
- NF-kB SEAP reporter activity [2, 7]: 0.656
- NF-kB SEAP reporter activity [2, 8]: 0.699

SMILES: COc1ccc2c(c1)C1(CC1c1ccc3c(/C=C/c4ccc(CN5CC(C)OC(C)C5)cc4)n[nH]c3c1)C(=O)N2 (stereo not drawn) (library stock concentration (final ~1000-fold dilution): 10 mM)
- NF-kB SEAP reporter activity ([1]; agonist: LPS (TLR4) 0.1 ug/mL): 0.612
- NF-kB SEAP reporter activity [1, 4]: 0.225
- NF-kB SEAP reporter activity [1, 5]: 0.481
- NF-kB SEAP reporter activity [1, 6]: 0.345

SMILES: CC(C)CN(CC(O)C(Cc1ccccc1)NC(=O)OC1COC2OCCC12)S(=O)(=O)c1ccc(N)cc1 (stereo not drawn)
- NF-kB SEAP reporter activity [2, 8]: 1.62

SMILES: CC(C)CN(CC(O)C(Cc1ccccc1)NC(=O)OC1COC2OCCC12)S(=O)(=O)c1ccc(N)cc1 (stereo not drawn) (library stock concentration (final ~1000-fold dilution): 10 mM)
- NF-kB SEAP reporter activity ([1]; agonist: LPS (TLR4) 0.1 ug/mL): 1.73
- NF-kB SEAP reporter activity [1, 4]: 1.7
- NF-kB SEAP reporter activity [1, 5]: 1.48
- NF-kB SEAP reporter activity [1, 6]: 1.56

SMILES: CS(=O)(=O)O.Fc1ccc(C2CCNCC2COc2ccc3c(c2)OCO3)cc1 (stereo not drawn)
- NF-kB SEAP reporter activity [2, 9]: 1.43

SMILES: CS(=O)(=O)O.Fc1ccc(C2CCNCC2COc2ccc3c(c2)OCO3)cc1 (stereo not drawn) (library stock concentration (final ~1000-fold dilution): 10 mM)
- NF-kB SEAP reporter activity ([3]; agonist: LPS (TLR4) 0.1 ug/mL): 1.08
- NF-kB SEAP reporter activity [3, 4]: 0.542
- NF-kB SEAP reporter activity [3, 5]: 0.486
- NF-kB SEAP reporter activity [3, 6]: 0.425

SMILES: COc1ccc(-c2cc(C(F)F)nn2-c2ccc(S(N)(=O)=O)cc2)cc1F
- NF-kB SEAP reporter activity [2, 7]: 1.26
- NF-kB SEAP reporter activity [2, 8]: 1.13

SMILES: COc1ccc(-c2cc(C(F)F)nn2-c2ccc(S(N)(=O)=O)cc2)cc1F (library stock concentration (final ~1000-fold dilution): 10 mM)
- NF-kB SEAP reporter activity ([1]; agonist: LPS (TLR4) 0.1 ug/mL): 1.26
- NF-kB SEAP reporter activity [1, 4]: 1.14
- NF-kB SEAP reporter activity [1, 5]: 0.959
- NF-kB SEAP reporter activity [1, 6]: 1.19

SMILES: COc1ccc(CCNCC(O)COc2cccc(C)c2)cc1OC.Cl (stereo not drawn)
- NF-kB SEAP reporter activity [2, 8]: 1.06

SMILES: COc1ccc(CCNCC(O)COc2cccc(C)c2)cc1OC.Cl (stereo not drawn) (library stock concentration (final ~1000-fold dilution): 10 mM)
- NF-kB SEAP reporter activity ([1]; agonist: LPS (TLR4) 0.1 ug/mL): 1.02
- NF-kB SEAP reporter activity [1, 4]: 0.846
- NF-kB SEAP reporter activity [1, 5]: 0.999
- NF-kB SEAP reporter activity [1, 6]: 1.08

SMILES: CCN(CC)C(=O)C1(c2ccccc2)CC1CN.Cl (stereo not drawn)
- NF-kB SEAP reporter activity [2, 7]: 1.02
- NF-kB SEAP reporter activity [2, 8]: 1.1

SMILES: CCN(CC)C(=O)C1(c2ccccc2)CC1CN.Cl (stereo not drawn) (library stock concentration (final ~1000-fold dilution): 10 mM)
- NF-kB SEAP reporter activity ([1]; agonist: LPS (TLR4) 0.1 ug/mL): 0.999
- NF-kB SEAP reporter activity [1, 4]: 0.858
- NF-kB SEAP reporter activity [1, 5]: 0.856
- NF-kB SEAP reporter activity [1, 6]: 1.18

SMILES: FC(F)(F)Oc1ccc2[nH]c(-c3ccc(OCCOCCOc4ccc(-c5nc6cc(OC(F)(F)F)ccc6[nH]5)nc4)cn3)nc2c1
- NF-kB SEAP reporter activity [2, 7]: 0.717
- NF-kB SEAP reporter activity [2, 8]: 0.895

SMILES: FC(F)(F)Oc1ccc2[nH]c(-c3ccc(OCCOCCOc4ccc(-c5nc6cc(OC(F)(F)F)ccc6[nH]5)nc4)cn3)nc2c1 (library stock concentration (final ~1000-fold dilution): 10 mM)
- NF-kB SEAP reporter activity ([1]; agonist: LPS (TLR4) 0.1 ug/mL): 0.228
- NF-kB SEAP reporter activity [1, 4]: 0.633
- NF-kB SEAP reporter activity [1, 5]: 0.199
- NF-kB SEAP reporter activity [1, 6]: 0.192

SMILES: CN1CCN(CCCNc2ncc(Cl)c(-c3cc4c(C(=O)NC5CC5)cccc4s3)n2)CC1.Cl.Cl.Cl (library stock concentration (final ~1000-fold dilution): 10 mM)
- NF-kB SEAP reporter activity ([1]; agonist: LPS (TLR4) 0.1 ug/mL): 0.313 ± 0.14
- NF-kB SEAP reporter activity [1, 4]: 0.174 ± 0.0094
- NF-kB SEAP reporter activity [1, 5]: 0.0865 ± 0.0023
- NF-kB SEAP reporter activity [1, 6]: 0.134 ± 0.0077

SMILES: CN1CCN(CCCNc2ncc(Cl)c(-c3cc4c(C(=O)NC5CC5)cccc4s3)n2)CC1.Cl.Cl.Cl
- NF-kB SEAP reporter activity [2, 7]: 0.215 ± 0.045
- NF-kB SEAP reporter activity [2, 8]: 0.2944 ± 0.00089
